Measured values from publication PMC4336329 (PLoS ONE, 2015).
The whole screen tested about 310,000 compounds, of which about 2,200 (0.71%) showed an effect of 50% or more. The effect is printed as a negative number. This is one part of the list.

target: human ether-à-go-go-related gene (hERG) potassium channel (human, UniProt Q12809); test: primary screen, population patch clamp on CHO cells stably expressing hERG
Sequence (Q12809 whole entry, looked up): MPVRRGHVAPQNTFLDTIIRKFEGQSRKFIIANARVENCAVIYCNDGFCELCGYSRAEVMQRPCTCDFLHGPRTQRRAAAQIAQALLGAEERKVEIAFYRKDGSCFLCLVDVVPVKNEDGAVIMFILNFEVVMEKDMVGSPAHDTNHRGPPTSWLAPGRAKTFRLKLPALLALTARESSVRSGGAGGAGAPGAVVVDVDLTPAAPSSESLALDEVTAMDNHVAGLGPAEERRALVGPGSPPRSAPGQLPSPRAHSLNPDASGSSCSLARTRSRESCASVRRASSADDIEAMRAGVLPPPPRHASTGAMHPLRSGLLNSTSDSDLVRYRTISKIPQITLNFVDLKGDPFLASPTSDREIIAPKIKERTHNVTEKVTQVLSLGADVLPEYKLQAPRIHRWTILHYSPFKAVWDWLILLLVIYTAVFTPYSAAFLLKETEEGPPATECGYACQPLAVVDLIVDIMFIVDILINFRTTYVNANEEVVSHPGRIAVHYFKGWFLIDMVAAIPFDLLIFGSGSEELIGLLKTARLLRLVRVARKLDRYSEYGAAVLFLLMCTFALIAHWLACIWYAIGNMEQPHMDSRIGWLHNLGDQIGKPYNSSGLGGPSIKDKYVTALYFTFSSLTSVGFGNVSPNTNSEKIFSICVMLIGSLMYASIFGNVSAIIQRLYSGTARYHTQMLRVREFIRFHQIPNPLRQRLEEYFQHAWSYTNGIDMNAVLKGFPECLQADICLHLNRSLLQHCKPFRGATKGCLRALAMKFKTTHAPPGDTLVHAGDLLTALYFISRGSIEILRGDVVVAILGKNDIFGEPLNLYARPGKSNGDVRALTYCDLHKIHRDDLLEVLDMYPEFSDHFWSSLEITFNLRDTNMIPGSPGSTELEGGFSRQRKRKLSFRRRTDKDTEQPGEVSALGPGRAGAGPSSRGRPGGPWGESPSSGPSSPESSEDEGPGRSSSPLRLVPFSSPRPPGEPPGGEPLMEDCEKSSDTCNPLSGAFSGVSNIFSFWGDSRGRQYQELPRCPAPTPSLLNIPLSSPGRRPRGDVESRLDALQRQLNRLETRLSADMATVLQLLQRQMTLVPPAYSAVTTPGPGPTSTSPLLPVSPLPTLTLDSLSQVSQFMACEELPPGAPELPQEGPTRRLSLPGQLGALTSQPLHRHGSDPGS

| SMILES | hERG current change (%, negative = inhibition) at 1uM |
| --- | --- |
| CCC(C)[C@H](NC(=O)[C@@H]1CSC2c3ccccc3C(=O)N21)C(=O)NCc1ccco1 (some centres unmarked) | 16% |
| Cc1ccc2nc(NC(=O)C3CCN(S(=O)(=O)c4cccnc4)CC3)sc2c1 | 12.8% |
| CCOc1cnc(-c2c(-c3c(F)cccc3Cl)noc2C)o1 | 13.5% |
| COC(=O)c1cc(NS(=O)(=O)c2ccc(OC)c(OC)c2)ccc1Cl | 8.4% |
| COc1ccc(S(=O)(=O)N2CC(=O)Nc3ccccc32)cc1F | 19.7% |
| Cc1ccccc1-n1c(O)c(/C=N/N2CCOCC2)c(=O)[nH]c1=S | 8.92% |
| COc1cc(/C=C2\C(=O)NN(c3ccc(C)cc3)C2=O)cc([N+](=O)[O-])c1O | 13% |
| O=C(Nc1ccc2c(c1)OCCO2)c1oc2ccccc2c1NC(=O)C1CC1 | 9.3% |
| CN(c1ccccc1)S(=O)(=O)c1ccc(NC(=O)c2ccc(F)cc2)cc1 | 10.8% |
| COc1cccc(CN(C)C(=O)/C=C/c2ccc(S(=O)(=O)N3CCCCCC3)cc2)c1 | -2.27% |
| COCc1cc(C)nc(SCC(=O)Nc2cccc3cccnc23)c1C#N | 8.27% |
| C/C(Cc1ccccc1)=N\NC(=O)CNC(=O)c1ccc(C(C)(C)C)cc1 | 4.69% |
| Cc1ccc(NCC(=O)N/N=C/c2cccc(Oc3ccccc3)c2)cc1 | 18.2% |
| FC(F)(F)c1cccc(CNC2c3ccccc3-c3ccccc32)c1.O=C(O)C(=O)O | 13.9% |
| Cc1c(C(=O)N/N=C/c2ccc(-c3ccccc3[N+](=O)[O-])o2)sc(N)c1C#N | 9.16% |
| Cc1ccc(S(=O)(=O)NC(CC(C)C)C(=O)N2CCCC2)cc1 (centres unmarked) | 10.1% |
| O=C1CCN(Cc2nc(-c3ccc(Cl)cc3)no2)CCN1 | 5.25% |
| COCCNC(=O)c1cccc(OC2CCN(Cc3ccc(C(=O)OC)cc3)CC2)c1 | 6.44% |
| CSc1nc2c(c(=O)[nH]c(=O)n2C)n1C/C=C(\C)Cl | 5.61% |
| Cc1csc(NC(=O)Cc2coc3cc(C)c(C(C)C)cc23)n1 | 14.8% |
| COc1ccc(/C=C(\C#N)C(=O)OCC(=O)NC(C)c2ccccc2)cc1 (centres unmarked) | -9.58% |
| CCN(CC)S(=O)(=O)c1ccc2c(c1)nc(SCc1nc3ccsc3c(=O)[nH]1)n2CC | -16.5% |
| CCCc1cc(NCCCn2ccnc2)n2nc(C)c(-c3ccccc3)c2n1 | -7.1% |

| SMILES | hERG current change (%, negative = inhibition) at 1uM |
| --- | --- |
| O=P(Cc1ccccc1)(c1ccccc1)c1ccccc1 | 11.5% |
| CC1CCCC(C)N1C(=O)CSc1nc(N)cc(N)n1 (centres unmarked) | 12.9% |
| CN(C)S(=O)(=O)c1cccc(NC(=O)c2ccc(COc3ccccc3)cc2)c1 | 9.82% |
| N#Cc1cc(S(=O)(=O)N2CCOCC2)ccc1N1CCOCC1 | 4.8% |
| COc1ccc(Cl)cc1S(=O)(=O)N1CCN(C(=O)c2ccco2)CC1 | 0.165% |
| CCn1cc(C(=O)O)c(=O)c2cc(F)c(N3CCN(C(=O)Nc4ccccc4)CC3)cc21 | 11.8% |
| Cc1ccc(N2Cc3ccccc3OC(C)C2=O)cc1 (centres unmarked) | 12.5% |
| CCCCCCCCCC(=O)Nc1cccnc1 | 6.58% |
| CCOc1ccc(NC(=O)CN2C(=O)CSC2=O)cc1 | 10.5% |
| O=S(=O)(Nc1ccc(Br)cn1)c1ccc2ccccc2c1 | 23.8% |
| COc1ccccc1-c1ccc(Nc2ccc(C(=O)N3CCOCC3)cc2)nn1 | 1.47% |
| O=C1/C(=C/c2ccncc2)SC(=S)N1N1CCOCC1 | 11.7% |
| C/C(CC(=O)Nc1cccc(C(F)(F)F)c1)=N/NC(=O)C(=O)NCCO | 22.5% |
| COc1ccc(C(=O)NCc2ccncc2)cc1S(=O)(=O)N1CCOCC1 | -1.77% |
| CC(C)(C)c1ccc(C(=O)N/C(=C\c2cccs2)C(=O)NCc2ccco2)cc1 | 8.21% |
| COC(=O)c1[nH]c2ccc(C)cc2c1NC(=O)Nc1ccccc1OC | 0.78% |
| COc1ccc(O)c(-c2[nH]ncc2C(=O)c2ccccc2C)c1 | 4.01% |
| O=C(CCNC(=O)c1ccccc1Cl)Nc1nccs1 | 9.21% |
| O=C(C1CCCO1)N1CCN(C(=S)Nc2ccc(Cl)cc2)CC1 (centres unmarked) | 0.373% |
| Cc1nn(C)cc1CN(C)Cc1c(C(=O)N(C)Cc2ccccc2)nc2ccccn12 | 6.16% |
| CCOC(=O)/C(C#N)=C1/SC(CC)C(=O)N1c1ccc(Br)cc1 (centres unmarked) | -8.3% |
| COc1cccc(N2CC(O)Cn3c2nc2c3c(=O)n(CCCc3ccccc3)c(=O)n2C)c1 (centres unmarked) | 2.34% |
| COc1ccc(NC(=O)CSCC(=O)Nc2cccc(S(=O)(=O)N3CCCCCC3)c2)cc1 | 11.8% |

| SMILES | hERG current change (%, negative = inhibition) at 1uM |
| --- | --- |
| Cc1cc(C)cc(NC(=S)Nc2ccc3cn[nH]c3c2)c1 | -1.54% |
| COc1ccccc1-n1c(O)c(/C=N/NC(=S)Nc2ccccc2)c(=O)[nH]c1=S | 10.8% |
| COC(=O)Cc1coc2cc(OC)ccc12 | 17.6% |
| CN(C)c1ccc(/C=N/NC(=O)COc2ccccc2)cc1 | 0.705% |
| Nc1ccc(C(=O)c2cccs2)cn1 | 1.62% |
| Cc1ccccc1-n1ccnc1SCC(=O)O | 15.5% |
| C=Cn1c(C(=O)O)cc(CC)c1-c1ccccc1 | -1.72% |
| O=C(Oc1ccc2c(c1)OCO2)c1ccc(Br)c(S(=O)(=O)N2CCOCC2)c1 | 5.08% |
| COC(=O)CCC(=O)COc1ccccc1C#N | 4.66% |
| C(=C\c1ccco1)/c1nc2ccccc2[nH]1 | 4.56% |
| COc1ccc(/C=N/NC(=O)c2ccncc2)cc1OC | 11.5% |
| O=C1NC(=O)/C(=C/c2ccc(N3CCOCC3)o2)N1 | 14.4% |
| Cc1ccc(C)c(S(=O)(=O)NC(CCC(N)=O)C(=O)O)c1 (centres unmarked) | 9.59% |
| CCc1cc2c(-c3ccccc3)cc(=O)oc2cc1OC(C)C(C)=O (centres unmarked) | 14% |
| CCCCN(CCCC)CCCNC(=O)C1CC(c2cc(C(F)(F)F)cc(C(F)(F)F)c2)=NO1 (centres unmarked) | 12.4% |
| CC(NC(=O)NCCCn1ccnc1)(C(F)(F)F)C(F)(F)F | 19.2% |
| O=C(NCc1ccccc1)C1=C[C@@H](c2ccc(Br)cc2)C[C@@H](OCCCCO)O1 | 4.43% |
| COc1ccc(NC(=O)C2CCCN2S(=O)(=O)c2ccc(C)cc2)cc1 (centres unmarked) | -0.967% |
| CCN(CC(=O)Nc1ccc2c(c1)OCCO2)S(=O)(=O)c1ccc(F)cc1 | 13.1% |
| C=CCNC(=O)/C(=C/c1ccccc1OCC)NC(=O)c1ccccc1 | 9.73% |
| COC(=O)c1ccc(NC(=O)CSc2nc3ccccc3c(=O)[nH]2)cc1 | 3.69% |
| CCc1ccccc1NC(=O)C1CCCN1S(=O)(=O)c1ccc2c(c1)n(C)c(=O)c(=O)n2C (centres unmarked) | 1.13% |
| CC(C)CC(C(=O)OCC(=O)Nc1ncc(Cl)cc1Cl)N1C(=O)c2ccccc2C1=O (centres unmarked) | 9.79% |

| SMILES | hERG current change (%, negative = inhibition) at 1uM |
| --- | --- |
| Cc1cc(SCC(=O)N/N=C/c2ccco2)nc2ccccc12 | 17.6% |
| O=C(CN1CCN(c2ccc(C(F)(F)F)cn2)CC1)NCc1ccc2c(c1)OCO2 | -49.1% |
| O=C(CSc1nc2ccccc2s1)NNC(=S)Nc1ccc(Br)cc1 | 11.3% |
| C=CCO/N=C/C1C(=O)CC(C)(C)CC1=O | 3.48% |
| O=C(NC1CCCC1)c1ccc(CN2CCOCC2)cc1 | 8.29% |
| COc1ccc(OCC(=O)N/N=C(\C)c2ccc(OC)cc2)cc1 | 6.37% |
| COc1ccc(/C=N\NC(=O)c2ccccc2)cc1COc1ccc(F)cc1 | 4.81% |
| Cc1cccc(C)c1NC(=O)C1CCCN1S(=O)(=O)c1ccc2c(c1)n(C)c(=O)c(=O)n2C (centres unmarked) | 8.92% |
| O=C(CSc1cccc(C(F)(F)F)c1)NC(=O)c1ccccc1 | 10.7% |
| COc1ccc(S(=O)(=O)Nc2ccc3oc4ncccc4c(=O)c3c2)cc1OC | 7.32% |
| O=C(O)CC(c1ccccc1)n1cnnn1 (centres unmarked) | 6.34% |
| CCN(CC)CCCN=Cc1c(O)n(-c2cccc(C)c2C)c(=O)[nH]c1=O | 6.07% |
| CC(Sc1nnnn1C)C(=O)NC(=O)NC1CCCCC1 (centres unmarked) | 10.7% |
| C=CCn1c(-c2cccc(Cl)c2)n[nH]c1=S | 11.4% |
| CCCn1c(=O)c2ccccc2n2c(SCC(=O)Nc3cc(C)on3)nnc12 | 12.4% |
| Cc1cc(C)nc(SCc2nnc(SCc3ccc([N+](=O)[O-])cc3)n2Cc2ccco2)n1 | -57.5% |
| CCC(C)(NC(=O)c1ccccc1)C(=O)O (centres unmarked) | 8.79% |
| COc1ccc(CCNC(=O)CN(c2ccccc2OC)S(C)(=O)=O)cc1OC | 13.5% |
| O=C(O)Cn1c(SC2CCCCC2)nc2ccccc21 | -7.66% |
| Cc1c(OCC(F)(F)F)ccnc1CS(=O)c1nc2ccccc2[nH]1 (centres unmarked) | 16.6% |
